Reference: the supplement of paper PMC12217912
The other results are listed elsewhere or left out. Sequences were assembled here from the parent chain. Values near 0.05 are background.

B1: TEV protease; numbered along this chain (parent)
chain: MGESLFKGPRDYNPISSSICHLTNESDGHTTSLYGIGFGPFIITNKHLFRRNNGTLVVQSLHGVFKVKDTTTLQQHLVDGRDMIIIRMPKDFPPFPQKLKFREPQREERICLVTTNFQTKSMSSMVSDTSCTFPSGDGIFWKHWIQTKDGQCGSPLVSTRDGFIVGIHSASNFTNTNNYFTSVPKNFMELLTNQEAQQWVSGWRLNADSVLWGGHKVFMVKPEEPFQPVKEATQL

Variants of: B1
Assay: raw area under fraction-flipped curve 0-4 h after induction (AUC4h, not background-subtracted), DNA-recorder readout of cleavage of the substrate (dimensionless); higher = more cleavage of the substrate by the protease variant
Settings: temperature: 34 °C; time window: 0-4 h after rhamnose induction
Description: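 In vivo DNA recorder in E. coli TOP10(DE3) ΔrhaA at 34 °C. Each TEVp single-site mutant (parent TEVp 0) is paired with a single-site variant of the 7-mer TEVs (canonical ENLYFQ|S). The substrate sits between flexible linkers in a Bxb1-sfGFP-TEVs-SsrA fusion, so cleavage stabilises Bxb1 and speeds flipping of a recombination array, read by NGS. The value is the raw area under the fraction-flipped curve over 0-4 h after rhamnose induction (AUC4h), with ≥20 reads per time point. It is not background-subtracted; inactive controls average about 0.047.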
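Further: Bxb1 expression induced with 0.2% (w/v) L-rhamnose at OD600 near 0.5, cultures sampled hourly, flipped fraction per protease–substrate barcode pair counted by paired-end Illumina sequencing.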

Row | Variant | area with substrate ENLYAQS | area with substrate ENLYDQS | area with substrate ENLYEQS | area with substrate ENLYGQS | area with substrate ENLYHQS | area with substrate ENLYIQS | area with substrate ENLYMQS | area with substrate ENLYNQS | area with substrate ENLYPQS | area with substrate ENLYQQS | area with substrate ENLYRQS | area with substrate ENLYTQS | area with substrate ENLYVQS | area with substrate ENLYWQS | area with substrate ENLYKQS | area with substrate ENLYSQS | area with substrate ENLYCQS | area with substrate ENLYYQS | area with substrate ENLYLQS
1 | L33E | 0.0748 | 0.0664 | 0.0537 | 0.0571 | 0.0655 | 0.0828 | 0.066 | 0.0646 | 0.0695 | 0.0648 | 0.0536 | 0.0694 | 0.0593 | 0.0549 |  |  |  |  | 
2 | L33C | 0.0699 | 0.0555 | 0.0658 |  | 0.0591 | 0.0705 | 0.0698 | 0.0648 | 0.0838 | 0.0649 |  | 0.0697 | 0.0857 |  | 0.0544 | 0.081 |  |  | 
3 | T30A | 0.0622 |  | 0.0777 | 0.0847 | 0.0626 | 0.115 | 0.0869 | 0.0737 | 0.0629 |  | 0.0527 | 0.0967 | 0.107 | 0.0851 | 0.0559 | 0.0728 | 0.0992 | 0.0854 | 
4 | V78T | 0.0634 | 0.0561 | 0.0482 |  | 0.0541 | 0.102 | 0.0617 | 0.0559 |  | 0.0595 | 0.0415 | 0.0807 |  | 0.0719 | 0.0589 | 0.0863 |  | 0.0293 | 0.0552
5 | V78M | 0.079 | 0.0567 | 0.088 | 0.074 | 0.07 | 0.102 | 0.0962 | 0.0627 | 0.0801 | 0.0593 | 0.0766 | 0.0591 | 0.136 | 0.073 | 0.0524 | 0.0666 |  | 0.0429 | 
6 | V78K | 0.101 |  | 0.0581 | 0.0499 | 0.0556 |  |  | 0.06 | 0.0298 | 0.05 | 0.0438 |  | 0.0614 |  | 0.0506 | 0.0563 | 0.0474 |  | 
7 | I86A | 0.0642 | 0.0642 | 0.0558 | 0.0634 | 0.0612 | 0.0714 | 0.0496 | 0.0495 | 0.046 | 0.0703 |  |  | 0.0724 | 0.0519 | 0.0517 |  | 0.0558 | 0.0525 | 0.0505
8 | D69M | 0.075 | 0.0553 |  |  | 0.0614 | 0.104 |  | 0.0548 |  | 0.0901 | 0.0568 | 0.0802 | 0.0714 |  | 0.0683 | 0.0612 |  | 0.0525 | 0.0723
9 | T70V | 0.072 | 0.0644 | 0.0618 | 0.0708 |  |  | 0.057 |  | 0.0639 |  |  | 0.0727 | 0.069 | 0.0565 | 0.0689 | 0.0606 |  |  | 0.0749
10 | S16P | 0.0625 |  | 0.0645 |  | 0.07 | 0.143 | 0.0868 | 0.0736 | 0.0707 | 0.0673 | 0.057 | 0.081 | 0.0969 |  | 0.0561 |  | 0.0861 | 0.0656 | 0.101
11 | K46D | 0.0719 | 0.0528 |  | 0.0535 | 0.05 | 0.0953 | 0.062 | 0.0594 |  | 0.0668 | 0.0586 |  | 0.0541 |  | 0.0843 | 0.0611 |  | 0.0614 | 0.0769
12 | F65Y | 0.0757 | 0.0646 | 0.054 | 0.0657 |  | 0.111 | 0.0418 | 0.0895 | 0.0605 | 0.0712 | 0.0594 |  |  | 0.0787 | 0.0555 | 0.0295 | 0.101 | 0.0673 | 0.0819
13 | Y34E | 0.0545 | 0.0533 | 0.0597 |  |  |  | 0.0753 | 0.0665 | 0.059 |  |  |  |  |  |  | 0.0722 |  | 0.0604 | 
14 | K7P | 0.0763 | 0.0576 | 0.0826 | 0.0305 |  | 0.0743 | 0.0576 |  | 0.0676 |  | 0.0623 | 0.0999 |  | 0.069 | 0.0707 |  |  |  | 0.0889
15 | K7I | 0.0441 | 0.062 | 0.024 | 0.0482 |  | 0.0775 |  |  | 0.0541 |  | 0.0577 |  | 0.0692 | 0.0611 | 0.0671 | 0.0717 |  |  | 
16 | R50V | 0.098 | 0.0637 | 0.0526 | 0.0623 | 0.104 | 0.199 |  | 0.0667 | 0.0755 |  | 0.0659 |  | 0.15 | 0.105 | 0.0214 | 0.0721 |  | 0.0654 | 0.11
17 | Q75T | 0.0603 | 0.0702 |  | 0.0672 | 0.0622 |  | 0.0807 | 0.0649 | 0.0667 |  | 0.0668 | 0.0693 | 0.0869 | 0.072 | 0.044 | 0.0593 |  | 0.0597 | 
18 | Q75H | 0.0685 | 0.0519 |  | 0.0555 | 0.0635 | 0.0892 | 0.0478 | 0.0507 |  | 0.0598 | 0.0594 | 0.0761 | 0.0741 | 0.0606 | 0.0692 | 0.0638 | 0.0684 | 0.0641 | 
19 | V64S | 0.0701 | 0.0623 |  | 0.0656 |  | 0.0899 | 0.106 |  |  | 0.0622 |  |  |  | 0.0788 | 0.0595 |  |  | 0.0503 | 0.0963
20 | N53E | 0.0709 | 0.058 | 0.0469 |  | 0.0691 | 0.102 | 0.0848 | 0.0689 |  |  | 0.0656 |  | 0.0906 | 0.0856 | 0.0748 |  |  |  | 
21 | L77M | 0.0543 | 0.054 | 0.0787 | 0.0707 | 0.0591 | 0.0239 | 0.0671 | 0.0577 | 0.0656 | 0.0581 | 0.0708 |  |  | 0.0494 | 0.0324 | 0.0856 |  |  | 
22 | I43M | 0.0721 | 0.0643 | 0.0626 | 0.0645 | 0.0532 |  |  | 0.0546 | 0.0629 | 0.0621 | 0.0679 | 0.0544 | 0.0904 | 0.0699 | 0.0554 | 0.0695 |  |  | 0.066
23 | K90C | 0.0735 | 0.0668 | 0.0719 |  | 0.0654 | 0.115 |  | 0.0697 | 0.0634 | 0.0587 | 0.0616 | 0.078 | 0.127 | 0.0644 | 0.0618 | 0.0695 | 0.0581 | 0.073 | 0.0861
24 | D82I | 0.071 |  |  | 0.0461 | 0.0442 | 0.0381 | 0.0414 |  | 0.0181 |  |  |  |  |  | 0.022 | 0.0421 |  |  | 
25 | T71D | 0.0544 |  | 0.0643 |  | 0.0774 | 0.0898 | 0.0624 | 0.0653 | 0.065 |  | 0.0512 | 0.0777 |  | 0.0619 | 0.101 |  |  |  | 0.094
26 | T71I | 0.0598 | 0.0651 | 0.065 |  | 0.003 |  | 0.0778 | 0.0577 | 0.0839 | 0.0615 |  |  |  | 0.0809 |  |  |  | 0.0619 | 
